± gives the standard deviation of the averaged measurements. The full ranking holds about 33,000 sequences; the median of “E-score (dimensionless, -0.5 to 0.5)” is about -0.046, and the highest 2% start at about 0.36. The list shows a part of the results.
Test system: T1, SpTbr T-box DNA-binding domain (GST fusion)
T1 sequence: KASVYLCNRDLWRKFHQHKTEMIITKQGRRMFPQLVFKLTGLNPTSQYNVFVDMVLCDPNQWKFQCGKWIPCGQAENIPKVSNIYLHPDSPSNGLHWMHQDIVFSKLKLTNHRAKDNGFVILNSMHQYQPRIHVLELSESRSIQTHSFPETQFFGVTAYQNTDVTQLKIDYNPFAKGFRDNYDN
Test: PBM E-score of 8-mer (E-score (dimensionless, -0.5 to 0.5)); Tbr is Tbrain of the sea star Patiria miniata (Pm) or the sea urchin Strongylocentrotus purpuratus (Sp); higher = stronger binding preference; most listed sequences are background and not binding sites
Conditions: the construct has about 5 more residues each side
Procedure, shortened: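 Primer extension turned Universal Agilent oligonucleotide arrays double-stranded. They were incubated with 200 nM protein in PBS (pH 7.5); the protein was a GST-fused Tbr T-box DNA-binding domain expressed in BL21 E. coli at 20 °C and purified on glutathione. Every ungapped 8-mer was scored from the scanned, quantified probe intensities, and the Universal PBM Analysis Suite gave each an enrichment E-score averaged over duplicate arrays.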

Sequence	PBM E-score of 8-mer
CTGTTTAA	-0.0429 ± 0.0017
AATCGCAA	0.231 ± 0.0071
CCTTCGTA	0.00169 ± 0.087
CTTTCGGC	0.0198 ± 0.013
CACATCTG	0.267 ± 0.014
AGTACGGG	-0.227 ± 0.012
TAAGCTAA	-0.295 ± 0.01
GTCGCCAC	0.355 ± 0.011
AAGTAAAC	-0.0429 ± 0.048
ATGGATAC	-0.334 ± 0.0065
AAACAAAG	0.0406 ± 0.032
TCTGGTAA	0.0318 ± 0.036
CGATAGTC	0.06612 ± 0.00037
CGTGGCAA	0.136 ± 0.0024
TCATTTAA	-0.193 ± 0.036
GTACCGAC	-0.085 ± 0.02
AGAACTCT	-0.19 ± 0.052
AGGCACCG	-0.0278 ± 0.12
GAGAGGCA	-0.156 ± 0.038
CCACACCA	0.314 ± 0.057
ATCGGCTA	-0.0768 ± 0.086
TATAACGA	-0.0926 ± 0.023

Sequence	PBM E-score of 8-mer
CCCACCTA	0.282 ± 0.013
ACGAGTGC	0.153 ± 0.03
ACTAAACC	-0.0636 ± 0.047
CCGTTGAA	-0.16 ± 0.011
CAGAATCC	-0.0892 ± 0.012
CGCCACCA	0.264 ± 0.074
ATGGTTAC	-0.2223 ± 0.0007
GCGTAACC	-0.00734 ± 0.078
CATATAGC	-0.162 ± 0.063
AAGGGCAG	-0.183 ± 0.054
ACAGTAAA	-0.223 ± 0.092
GGATTGGA	-0.187 ± 0.026
CGACTTAC	0.104 ± 0.056
GAGTGACC	-0.0175 ± 0.019
GGCAATTA	0.0477 ± 0.0015
CATACACG	-0.0952 ± 0.029
CTGCAGGA	-0.194 ± 0.053
CGAGCTCA	0.0183 ± 0.042
CAGGTAAG	0.0839 ± 0.015
AGGCGGTA	0.0362 ± 0.0049
GTAAGCGA	0.0852 ± 0.012
CCATAAAC	-0.173 ± 0.017

Sequence	PBM E-score of 8-mer
TCCGAGAA	0.08936 ± 0.00029
GAATGACA	0.263 ± 0.0075
AATAGCGT	0.0911 ± 0.081
GGGTGGCA	0.288 ± 0.014
GGTCCCAC	0.2764 ± 0.0004
AGACGCGC	0.13 ± 0.03
CGACCCGA	-0.0816 ± 0.051
AAGAATGT	-0.0437 ± 0.045
CCAGGCGG	-0.00073 ± 0.033
AGGTCGAA	-0.182 ± 0.024
ATTAAGGC	-0.102 ± 0.047
CACTTTAC	0.2726 ± 0.0026
CTAATCAA	-0.0132 ± 0.1
CGTCTAAC	-0.055 ± 0.02
AGGACGCC	-0.0398 ± 0.026
CAGCGAAA	-0.0118 ± 0.0072
ATGGGGTG	0.174 ± 0.067
GGTTACGA	-0.142 ± 0.062
GTGGCCTA	-0.0963 ± 0.11
CCCTTTCA	-0.189 ± 0.054
GCTAATAC	0.0247 ± 0.033
CTCTTCCA	-0.362 ± 0.015

Sequence	PBM E-score of 8-mer
ACATTATA	-0.0536 ± 0.054
CACGGGGA	-0.101 ± 0.035
ATTACAAG	-0.031 ± 0.023
TTGATAAA	-0.177 ± 0.11
ATAACGGG	0.104 ± 0.03
ATGAATCA	-0.13 ± 0.03
GACAAGTC	0.208 ± 0.024
CCGTATCA	-0.122 ± 0.057
CCCCGACA	0.142 ± 0.018
AATTCCGT	-0.161 ± 0.042
CAATTCAC	0.251 ± 0.04
TGAGCACA	0.0566 ± 0.087
ACGTACCT	-0.152 ± 0.065
CCTCACGC	0.322 ± 0.036
ACGCATGA	-0.0793 ± 0.024
CGGTGCAA	0.0157 ± 0.012
TGCCGCAA	-0.117 ± 0.059
CTCACCAG	0.174 ± 0.045
ACCAAGTC	0.0694 ± 0.028
TATGAGAA	-0.304 ± 0.058
